In the supplement of paper PMC9446081 one finds relative growth data, which are given here for 61 compounds.

The whole screen tested about 39,000 compounds, of which about 220 (0.56%) showed activity. The list shows a part of the results.
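Also: static incubation at 37 °C against the wild-type strain, values averaged over two biological replicates.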

This assay relates to Escherichia coli K-12 BW25113. In words: relative growth (OD600 normalised to plate interquartile mean) (fraction); higher = less growth inhibition, active = 0.2 or less. As to conditions: 50 µM; LB; incubation time: overnight (16-24 h).
Consider `Cn1cncc1CN1CCO[C@]2(COCCN(S(C)(=O)=O)C2)C1`, for which the relative growth is inactive: 1.01.
For `C[C@H]1CN([C@@H](C)CO)C(=O)c2cc(NS(=O)(=O)c3ccc(Cl)cc3)ccc2O[C@@H]1CN(C)Cc1ccc(C(=O)Nc2ccccc2N)cc1`, the relative growth is inactive: 1.03.
Next, `CN1C(=O)c2cc(NC(=O)c3ccc(F)cc3)ccc2OC[C@H]2O[C@@H](CC(=O)N3CCOCC3)CC[C@@H]21`: inactive: 1.02; `COCCOC(=O)N1C(=O)[C@@]2(c3cc(C#CCC(C(=O)OC)C(=O)OC)ccc31)[C@H](C(=O)NC[C@H](O)c1ccccc1)[C@H]1C(=O)O[C@H](c3ccccc3)[C@H](c3ccccc3)N1[C@@H]2c1ccc(OCCO)cc1`: inactive: 1.06; `Cc1noc(C)c1NC(=O)N(C)C[C@H]1Oc2ccc(NC(=O)c3ccncc3)cc2C(=O)N([C@H](C)CO)C[C@@H]1C`: inactive: 1.02.
Next, `CC1CCN(S(=O)(=O)c2c[nH]cn2)CC1`: inactive: 0.975.
Next, `Cc1ccnc([C@@H](N)C2CC2)c1`: inactive: 1.
Consider `CN1CCN(C(=O)C[C@H]2CC[C@@H]3[C@H](COC[C@H](O)CN3Cc3ccc4c(c3)OCO4)O2)CC1`, for which the relative growth was inactive: 1.01.
Next, `CO[C@H]1CN(C)C(=O)c2cc(NC(=O)CC(F)(F)F)ccc2OC[C@@H](C)N(C(=O)C2CCOCC2)C[C@H]1C`: inactive: 1.01.
Next, `C[C@H]1CN([C@@H](C)CO)C(=O)Cc2cc(NC(=O)CCN3CCOCC3)ccc2O[C@H]1CN(C)Cc1ccncc1`: inactive: 0.97.
Next, `C[C@H]1CCCCO[C@@H](CN(C)C)[C@@H](C)CN([C@@H](C)CO)C(=O)c2cc(NC(=O)CCCN(C)C)ccc2O1`: inactive: 0.973.
With `CCCCCN1C/C=C\CCC(=O)N(C)[C@H](C)[C@@H](c2ccccc2)OC(=O)[C@@H]2[C@@H]3C=C[C@]4(O3)[C@H](C1=O)N(c1ccccc1Cl)C(=O)[C@@H]24`, the relative growth was inactive: 0.984.
Next, `COc1ccc(S(=O)(=O)Nc2cccc3c2O[C@H](CN(C)S(=O)(=O)c2c(C)noc2C)[C@@H](C)CN([C@H](C)CO)C3=O)cc1`: inactive: 1.03; `CC(C)NC(=O)Nc1ccc2c(c1)CC(=O)N([C@@H](C)CO)C[C@H](C)[C@H](CN(C)S(=O)(=O)c1ccc(Cl)cc1)O2`: inactive: 1.01; `C[C@H]1CN=C(NS(=O)(=O)c2ccccc2)N1`: inactive: 1.
Next, `O=S(=O)(NCCCN(CCCc1ccccc1)CCCc1ccccc1)c1cccc2cnccc12`: inactive: 0.962; `C[C@H](CO)N1C[C@H](C)[C@H](CN(C)S(=O)(=O)c2ccc(F)cc2)Oc2c(NS(=O)(=O)c3ccccc3)cccc2C1=O`: inactive: 0.99.
Next, `Cc1noc(C)c1S(=O)(=O)Nc1ccc2c(c1)CC(=O)N([C@@H](C)CO)C[C@@H](C)[C@H](CN(C)S(=O)(=O)c1cccs1)O2`: inactive: 1.01; `Nc1nc(=S)c2ncn([C@@H]3O[C@H](CO)[C@@H](O)[C@H]3O)c2[nH]1`: inactive: 0.933.
With `NCCNC(=O)c1nc(-c2ccc(Br)o2)no1`, the relative growth is inactive: 0.892.
Next, `COc1ccc(NC(=O)Nc2ccc3c(c2)C(=O)N([C@@H](C)CO)C[C@H](C)[C@H](CN(C)Cc2ccc(C(F)(F)F)cc2)O3)cc1`: inactive: 0.982.
Next, `C[C@H](CO)N1C[C@H](C)[C@@H](CN(C)Cc2ccc3c(c2)OCO3)Oc2c(NC(=O)c3ccncc3)cccc2C1=O`: inactive: 0.988.
Consider `Cc1cc(C(=O)Nc2cccc3c2O[C@H](CN(C)C(=O)NC(C)C)[C@@H](C)CN([C@H](C)CO)C3=O)n(C)n1`, for which the relative growth is inactive: 1.01.
Regarding `Cc1ccc(S(=O)(=O)N(C)C[C@@H]2Oc3ncc(Br)cc3C(=O)N([C@@H](C)CO)C[C@@H]2C)cc1`, the relative growth was inactive: 0.991.
Next, `CNC(C)C1CCC(N)C(OC2C(N)CC(N)C(OC3OCC(C)(O)C(NC)C3O)C2O)O1.O=S(=O)(O)O` (stereo unspecified): inactive: 0.797; `Cc1nc(-c2sc3ccc(Cl)cc3c2C)cs1`: inactive: 1.
Next, `C[C@@H]1CN([C@@H](C)CO)C(=O)c2cc(NC(=O)Cn3cnnn3)ccc2O[C@@H]1CN(C)C(=O)Nc1ccc2c(c1)OCO2`: inactive: 0.999; `C[C@H](CO)N1C[C@H](C)[C@@H](CN(C)Cc2ccc3c(c2)OCO3)Oc2ccc(NC(=O)CCCN(C)C)cc2C1=O`: inactive: 0.991.
Next, `C[C@H](CO)N1C[C@H](C)[C@H](CN(C)C(=O)Nc2ccc3c(c2)OCO3)Oc2ccc(NC(=O)Nc3ccc(C(F)(F)F)cc3)cc2CC1=O`: inactive: 1.05; `C[C@@H]1CN([C@@H](C)CO)C(=O)c2cc(NC(=O)C3CC3)ccc2O[C@@H]1CN(C)Cc1ccc(Oc2ccccc2)cc1`: inactive: 1.01; `O=C(C[C@@H]1CC=CCC[C@@H](Cc2ccc(F)cc2)C(=O)OC[C@@H](Cc2c[nH]c3ccccc23)NC1=O)N[C@@H](CO)Cc1ccccc1`: inactive: 1.
`CC(C)(C)OC(=O)CC[C@@]12N=C(c3ccc(OCCCO)cc3)O[C@@H]1c1ccccc1CN(Cc1ccccc1)C2=O`: the relative growth is inactive: 1.02.
Next, `C[C@H](CO)N1C[C@H](C)[C@H](CN(C)C(=O)Nc2ccc3c(c2)OCO3)OCCCC[C@H](C)Oc2ccc(NC(=O)C3CCCCC3)cc2C1=O`: inactive: 1.01.
For `Nc1ncnc2c1ncn2[C@@H]1O[C@H](CO)[C@@H](O)[C@H]1O`, the relative growth is inactive: 1.01.
Take `C[C@H]1CN([C@@H](C)CO)S(=O)(=O)c2ccc(C#CC3(O)CCCC3)cc2O[C@@H]1CN(C)C(=O)c1ccncc1`: the relative growth is inactive: 1.
Next, `COc1ccc(S(=O)(=O)Nc2ccc3c(c2)C(=O)N([C@@H](C)CO)C[C@H](C)[C@@H](CN(C)Cc2ccc(C(F)(F)F)cc2)OCCCC[C@H](C)O3)cc1`: inactive: 0.897.
Next, `C[C@@H]1CN([C@H](C)CO)C(=O)Cc2cc(NC(=O)Nc3cccc4ccccc34)ccc2O[C@H]1CN(C)C(=O)NC1CCCCC1`: inactive: 0.953.
As for `COc1ccc2c3c([nH]c2c1)[C@H](CO)N(C[C@]13CCN(CC1)C(=O)Nc1cccc(c1)F)C(=O)c1ccccc1`, the relative growth is inactive: 1.03.
Next, `C[C@@H]1CN([C@H](C)CO)C(=O)c2c(c3ccccc3n2C)-c2ccccc2CO[C@H]1CN(C)Cc1ccc2c(c1)OCCN2C`: inactive: 0.961; `C[C@H]1CN([C@@H](C)CO)C(=O)c2cc(NS(C)(=O)=O)ccc2O[C@H]1CN(C)C(=O)Nc1ccc(F)cc1`: inactive: 1; `C[C@H]1CN([C@@H](C)CO)C(=O)CCCn2nncc2CO[C@H]1CN(C)S(=O)(=O)c1ccc2ccccc2c1`: inactive: 1.01.
On to `C[C@H]1CCCCO[C@@H](CN(C)CC2CCCCC2)[C@@H](C)CN([C@@H](C)CO)C(=O)c2cc(NC(=O)Nc3ccc4c(c3)OCO4)ccc2O1`, for which the relative growth was inactive: 0.966.
In the case of `O=C(C[C@@H]1CC[C@@H]2[C@H](COC[C@H](O)CN2Cc2ccccc2F)O1)N[C@H]1CCN(Cc2ccccc2)C1`, the relative growth is inactive: 0.994.
Next, `C[C@@H]1CN([C@@H](C)CO)C(=O)c2cc(NC(=O)CCCCCC(=O)Nc3ccccc3N)ccc2O[C@@H]1CN(C)CC1CCCCC1`: inactive: 0.98.
Next, `CCCNC(=O)C[C@@H]1CC[C@H]2[C@H](COc3ccc(NC(=O)c4ccc5c(c4)OCO5)cc3C(=O)N2C)O1`: inactive: 1.02; `C[C@@H]1CCCCO[C@H](CN(C)C(=O)Nc2cccc3ccccc23)[C@@H](C)CN([C@H](C)CO)C(=O)c2cc(NC(=O)c3ccncc3)ccc2O1`: inactive: 0.998.
Next, `O=C(CCC1CCCC1)N1CCCC1`: inactive: 1.02; `CC(C)NC(=O)Nc1ccc2c(c1)C(=O)N([C@@H](C)CO)C[C@@H](C)[C@@H](CN(C)Cc1ccc(Oc3ccccc3)cc1)O2`: inactive: 0.96.
With `C[C@@H]1CCCCO[C@H](CN(C)S(=O)(=O)c2cn(C)cn2)[C@@H](C)CN([C@@H](C)CO)C(=O)c2cc(NC(=O)Nc3cccc4ccccc34)ccc2O1`, the relative growth is inactive: 1.
As to `C[C@H]1CN([C@@H](C)CO)C(=O)Cc2cc(NS(=O)(=O)c3ccccc3)ccc2O[C@@H]1CN(C)Cc1ccc(Oc2ccccc2)cc1`, the relative growth was inactive: 0.968.
Next, `CC(O)C(=O)[O-].[NH4+]` (stereo unspecified): inactive: 1.15.
For the compound `O=C1CCCN1C[C@H]1CCCNC1`, the relative growth was inactive: 0.956.
For `NS(=O)(=O)C#Cc1ccccc1`, the relative growth was inactive: 0.241.
Turning to `COc1ccc2cc(-c3cc(-c4cc(Cl)cc(Cl)c4)nn3[C@@H](C)c3ccc(C(=O)NCCC(=O)O)cc3)ccc2c1`, the relative growth is inactive: 1.06.
Next, `C[C@H](CO)N1C[C@H](C)[C@H](CN(C)S(=O)(=O)c2ccccc2)Oc2cc(C#Cc3ccncc3)ccc2S1(=O)=O`: inactive: 1.03.
Next, `CCCCC(=O)OCC(=O)[C@]1(O)Cc2c(O)c3c(c(O)c2[C@@H](O[C@H]2C[C@H](NC(=O)C(F)(F)F)[C@H](O)[C@H](C)O2)C1)C(=O)c1c(OC)cccc1C3=O`: inactive: 1.01; `Cc1noc(C)c1S(=O)(=O)Nc1ccc2c(c1)CC(=O)N([C@@H](C)CO)C[C@@H](C)[C@H](CN(C)S(=O)(=O)c1ccc(F)cc1)O2`: inactive: 0.997; `C[C@@H]1CN([C@@H](C)CO)C(=O)Cc2cc(NC(=O)C3CC3)ccc2O[C@H]1CN(C)S(=O)(=O)c1ccc(F)cc1`: inactive: 0.975.
Next, `COc1ccc(NC(=O)Nc2ccc3c(c2)C(=O)N([C@H](C)CO)C[C@@H](C)[C@H](CN(C)C(=O)Cc2ccccc2)OCCCC[C@H](C)O3)cc1`: inactive: 0.99; `C[C@@H]1CN([C@H](C)CO)C(=O)c2cccc(NS(=O)(=O)c3ccc(Cl)cc3)c2O[C@@H]1CN(C)C(=O)Nc1cccc2ccccc12`: inactive: 0.999; `C[C@@H]1CN([C@@H](C)CO)C(=O)c2cc(NC(=O)Nc3ccccc3)ccc2O[C@H]1CN(C)CC1CCCCC1`: inactive: 0.997.
